Data taken from PubChem BioAssay (Tox21).
Where “and” joins values, the source holds several entries; their conditions need not be identical. Equal entries are not always repeated. This list was built around the results that the source calls inconclusive (neither active nor inactive); the mix of calls is not that of the screen. For some of these results: Where the call is inconclusive, the potency comes from a doubtful curve fit. The source holds several records for some structures; these can differ, active in one and inactive in another. Calls of active or inactive are those of the source. The call rests on the fitted dose curve; in most records, active means well fitted curve in the direction sought with a large enough effect in the repeat runs; inconclusive means weak or mixed curves; inactive means no such curve, though single readings can be large; an effect the other way counts as inactive or inconclusive.

Key:
[1] = Caspase-3/7 induction in CHO-K1 cells by small molecules, qHTS cell viability counter screen (AID 1346979); further: nearly all actives have a fitted effect of over 35% in size
Procedure, shortened: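 Multiplexed with Caspase-Glo 3/7 in CHO-K1 cells, this counter screen added CellTiter-Fluor after 16hr of compound exposure and recorded fluorescence 1hr later.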

[2] = target: Cytochrome P450 2D6 (Homo sapiens) (UniProt P10635); assay: Cytochrome P450 Family 2 Subfamily D Member 6 (CYP2D6) small molecule antagonists: luciferase reporter qHTS assay (AID 1671196); further: nearly all actives have a fitted effect of over 50% in size; further: potency means the concentration at half of the fitted maximal effect
UniProt P10635, sequence (P10635 whole entry, looked up): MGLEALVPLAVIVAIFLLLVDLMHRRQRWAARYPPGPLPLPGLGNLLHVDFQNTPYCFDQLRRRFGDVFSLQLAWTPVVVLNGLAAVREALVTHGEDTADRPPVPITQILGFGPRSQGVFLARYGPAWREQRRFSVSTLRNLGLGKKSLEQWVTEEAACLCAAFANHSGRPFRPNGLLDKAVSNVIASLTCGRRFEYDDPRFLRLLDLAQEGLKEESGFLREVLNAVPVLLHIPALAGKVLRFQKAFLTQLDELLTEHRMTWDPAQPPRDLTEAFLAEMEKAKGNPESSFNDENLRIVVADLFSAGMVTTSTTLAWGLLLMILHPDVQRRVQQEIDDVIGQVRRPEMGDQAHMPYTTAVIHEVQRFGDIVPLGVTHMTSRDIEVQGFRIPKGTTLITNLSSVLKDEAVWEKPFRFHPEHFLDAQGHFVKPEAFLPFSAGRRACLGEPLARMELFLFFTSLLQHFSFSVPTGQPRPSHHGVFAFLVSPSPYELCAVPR
Procedure, shortened: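 Chemicals tested for interference with CYP2D6 activity; proluciferin substrate, NADPH regeneration, 1 h at room temperature, luminescent detection.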

[3] = target: Cytochrome P450 2C19 (Homo sapiens) (UniProt P33261); assay: Cytochrome P450 Family 2 Subfamily C Member 19 (CYP2C19) small molecule antagonists: luciferase reporter qHTS assay (AID 1671197); further: nearly all actives have a fitted effect of over 65% in size; further: potency means the concentration at half of the fitted maximal effect
UniProt P33261, sequence (P33261 whole entry, looked up): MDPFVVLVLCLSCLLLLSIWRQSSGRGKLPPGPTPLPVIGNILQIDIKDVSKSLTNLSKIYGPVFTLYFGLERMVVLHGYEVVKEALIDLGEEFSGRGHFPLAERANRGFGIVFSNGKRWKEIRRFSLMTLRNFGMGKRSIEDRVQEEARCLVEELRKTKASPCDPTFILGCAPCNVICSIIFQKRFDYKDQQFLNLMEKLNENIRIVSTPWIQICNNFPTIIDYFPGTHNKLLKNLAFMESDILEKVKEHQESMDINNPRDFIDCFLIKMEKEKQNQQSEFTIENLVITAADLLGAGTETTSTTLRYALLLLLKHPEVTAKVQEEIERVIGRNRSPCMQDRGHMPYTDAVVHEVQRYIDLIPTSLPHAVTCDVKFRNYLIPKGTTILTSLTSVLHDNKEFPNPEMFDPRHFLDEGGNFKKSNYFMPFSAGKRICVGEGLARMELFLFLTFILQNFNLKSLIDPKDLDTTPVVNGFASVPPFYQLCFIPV
Procedure, shortened: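 P450-Glo CYP2C19 screening system; proluciferin substrate; DMSO compound stocks; 10 min RT preincubation; NADPH regeneration, 1 h at 37C; luciferin detection reagent, 20 min RT; luminescence as RLU.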

[4] = target: Cytochrome P450 2C9 (Homo sapiens) (UniProt P11712); assay: Cytochrome P450 Family 2 Subfamily C Member 9 (CYP2C9) small molecule antagonists: luciferase reporter qHTS assay (AID 1671198); further: nearly all actives have a fitted effect of over 50% in size; further: potency means the concentration at half of the fitted maximal effect
UniProt P11712, sequence (P11712 whole entry, looked up): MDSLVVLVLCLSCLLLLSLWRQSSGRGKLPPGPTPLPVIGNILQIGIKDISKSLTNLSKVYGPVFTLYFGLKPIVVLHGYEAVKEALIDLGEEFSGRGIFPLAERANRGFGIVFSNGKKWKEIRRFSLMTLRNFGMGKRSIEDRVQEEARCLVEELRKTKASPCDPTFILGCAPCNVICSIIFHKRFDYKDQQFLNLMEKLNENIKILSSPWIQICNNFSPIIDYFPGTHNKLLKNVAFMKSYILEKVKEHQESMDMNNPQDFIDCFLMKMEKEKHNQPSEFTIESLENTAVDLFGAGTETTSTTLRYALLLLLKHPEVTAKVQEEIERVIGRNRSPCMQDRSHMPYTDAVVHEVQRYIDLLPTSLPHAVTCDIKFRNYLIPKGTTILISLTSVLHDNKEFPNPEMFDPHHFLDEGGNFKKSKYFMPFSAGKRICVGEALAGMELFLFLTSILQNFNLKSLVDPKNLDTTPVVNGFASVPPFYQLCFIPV
Procedure, shortened: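 P450-Glo proluciferin substrate with CYP2C9 enzyme; 10 min RT preincubation, then NADPH regeneration 1 h at 37C; luciferin detection reagent 20 min RT, luminescence in relative luminescence units.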

[5] = target: Cytochrome P450 1A2 (Homo sapiens) (UniProt P05177); assay: Cytochrome P450 Family 1 Subfamily A Member 2 (CYP1A2) small molecule antagonists: luciferase reporter qHTS assay (AID 1671199); further: nearly all actives have a fitted effect of over 50% in size; further: potency means the concentration at half of the fitted maximal effect
UniProt P05177, sequence (P05177 whole entry, looked up): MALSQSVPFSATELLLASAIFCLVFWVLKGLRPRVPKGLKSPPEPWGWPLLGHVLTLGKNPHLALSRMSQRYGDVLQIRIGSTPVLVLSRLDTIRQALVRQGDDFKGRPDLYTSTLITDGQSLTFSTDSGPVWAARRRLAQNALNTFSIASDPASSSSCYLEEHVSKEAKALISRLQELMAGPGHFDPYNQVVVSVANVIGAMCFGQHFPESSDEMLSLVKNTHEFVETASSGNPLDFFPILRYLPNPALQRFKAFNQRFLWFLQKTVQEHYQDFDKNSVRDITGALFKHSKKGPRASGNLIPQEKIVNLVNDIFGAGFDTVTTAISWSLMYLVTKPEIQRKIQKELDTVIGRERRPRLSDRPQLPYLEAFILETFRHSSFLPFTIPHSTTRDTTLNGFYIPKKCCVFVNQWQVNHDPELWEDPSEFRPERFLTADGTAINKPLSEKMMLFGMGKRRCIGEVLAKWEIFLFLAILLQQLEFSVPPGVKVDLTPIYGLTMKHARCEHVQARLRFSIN
Procedure, shortened: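 Read-out is luminescence from luciferin detection reagent (20 min) proportional to CYP1A2 activity; compounds in DMSO preincubated 10 min with enzyme and proluciferin substrate, then NADPH regeneration solution, 1 h, room temperature.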

[6] = Caspase-3/7 induction in HepG2 cells by small molecules, qHTS cell viability counter screen (AID 1346981); further: nearly all actives have a fitted effect of over 30% in size; further: potency means the concentration at half of the fitted maximal effect
Procedure, shortened: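 Treatment of HepG2 cells with DMSO-delivered compounds ran 16 hr at 37 C following a 5-hr pre-incubation of 2,000 cells/well. CellTiter-Fluor fluorescence, read after 1 hr, served as the viability measure in a qHTS format.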

[7] = target: Nuclear receptor subfamily 1 group I member 2 (Homo sapiens) (UniProt O75469); assay: Human pregnane X receptor (PXR) small molecule agonists, qHTS assay (AID 1346982); further: nearly all actives have a fitted effect of over 35% in size; further: potency means the concentration at half of the fitted maximal effect
UniProt O75469, sequence (O75469 whole entry, looked up): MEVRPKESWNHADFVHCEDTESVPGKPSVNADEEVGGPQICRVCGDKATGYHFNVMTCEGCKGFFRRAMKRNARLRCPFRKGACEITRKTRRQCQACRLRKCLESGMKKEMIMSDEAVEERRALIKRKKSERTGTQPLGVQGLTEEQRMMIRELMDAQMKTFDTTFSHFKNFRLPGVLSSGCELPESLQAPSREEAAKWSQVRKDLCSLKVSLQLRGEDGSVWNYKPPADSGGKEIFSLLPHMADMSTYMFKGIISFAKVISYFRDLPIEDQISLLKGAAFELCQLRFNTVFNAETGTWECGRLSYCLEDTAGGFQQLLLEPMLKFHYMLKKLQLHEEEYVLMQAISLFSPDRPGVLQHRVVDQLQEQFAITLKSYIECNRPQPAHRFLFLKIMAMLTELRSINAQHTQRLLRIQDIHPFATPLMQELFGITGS
Procedure, shortened: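 Stable HepG2 line reporting PXR-mediated CYP3A4 expression via luciferase. Treatment: 24 hr with compounds in DMSO at 37 C. Detection: ONE-Glo luminescence.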

[8] = target: Cytochrome P450 3A4 (Homo sapiens) (UniProt P08684); assay: Cytochrome P450 Family 3 Subfamily A Member 4 (CYP3A4) small molecule antagonists: luciferase reporter qHTS assay (AID 1671201); further: nearly all actives have a fitted effect of over 50% in size; further: potency means the concentration at half of the fitted maximal effect
UniProt P08684, sequence (P08684 whole entry, looked up): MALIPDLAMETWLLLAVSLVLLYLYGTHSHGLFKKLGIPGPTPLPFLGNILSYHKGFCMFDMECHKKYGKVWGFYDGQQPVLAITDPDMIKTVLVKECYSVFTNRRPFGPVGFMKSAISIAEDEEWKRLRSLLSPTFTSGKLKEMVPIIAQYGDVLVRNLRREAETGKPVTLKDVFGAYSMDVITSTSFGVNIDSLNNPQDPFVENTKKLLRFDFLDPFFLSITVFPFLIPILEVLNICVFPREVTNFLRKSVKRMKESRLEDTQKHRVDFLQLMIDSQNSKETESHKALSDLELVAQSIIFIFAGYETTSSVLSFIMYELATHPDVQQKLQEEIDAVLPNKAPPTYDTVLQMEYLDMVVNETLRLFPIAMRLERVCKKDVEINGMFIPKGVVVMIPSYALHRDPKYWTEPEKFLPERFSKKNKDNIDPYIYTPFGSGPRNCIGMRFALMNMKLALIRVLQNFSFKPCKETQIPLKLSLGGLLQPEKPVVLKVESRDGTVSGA
Procedure, shortened: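 Room-temperature assay throughout: 10 min compound–enzyme/substrate preincubation, 1 h reaction after NADPH regeneration solution, 20 min detection. Luciferin formed from proluciferin substrate is quantified by luminescence.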

[9] = target: Voltage-gated inwardly rectifying potassium channel KCNH2 (Homo sapiens) (UniProt Q12809); assay: Human Ether-a-go-go-Related Gene (hERG) channel small molecule antagonists: fluorescence cell-based qHTS assay (AID 1671200)
UniProt Q12809, sequence (Q12809 whole entry, looked up): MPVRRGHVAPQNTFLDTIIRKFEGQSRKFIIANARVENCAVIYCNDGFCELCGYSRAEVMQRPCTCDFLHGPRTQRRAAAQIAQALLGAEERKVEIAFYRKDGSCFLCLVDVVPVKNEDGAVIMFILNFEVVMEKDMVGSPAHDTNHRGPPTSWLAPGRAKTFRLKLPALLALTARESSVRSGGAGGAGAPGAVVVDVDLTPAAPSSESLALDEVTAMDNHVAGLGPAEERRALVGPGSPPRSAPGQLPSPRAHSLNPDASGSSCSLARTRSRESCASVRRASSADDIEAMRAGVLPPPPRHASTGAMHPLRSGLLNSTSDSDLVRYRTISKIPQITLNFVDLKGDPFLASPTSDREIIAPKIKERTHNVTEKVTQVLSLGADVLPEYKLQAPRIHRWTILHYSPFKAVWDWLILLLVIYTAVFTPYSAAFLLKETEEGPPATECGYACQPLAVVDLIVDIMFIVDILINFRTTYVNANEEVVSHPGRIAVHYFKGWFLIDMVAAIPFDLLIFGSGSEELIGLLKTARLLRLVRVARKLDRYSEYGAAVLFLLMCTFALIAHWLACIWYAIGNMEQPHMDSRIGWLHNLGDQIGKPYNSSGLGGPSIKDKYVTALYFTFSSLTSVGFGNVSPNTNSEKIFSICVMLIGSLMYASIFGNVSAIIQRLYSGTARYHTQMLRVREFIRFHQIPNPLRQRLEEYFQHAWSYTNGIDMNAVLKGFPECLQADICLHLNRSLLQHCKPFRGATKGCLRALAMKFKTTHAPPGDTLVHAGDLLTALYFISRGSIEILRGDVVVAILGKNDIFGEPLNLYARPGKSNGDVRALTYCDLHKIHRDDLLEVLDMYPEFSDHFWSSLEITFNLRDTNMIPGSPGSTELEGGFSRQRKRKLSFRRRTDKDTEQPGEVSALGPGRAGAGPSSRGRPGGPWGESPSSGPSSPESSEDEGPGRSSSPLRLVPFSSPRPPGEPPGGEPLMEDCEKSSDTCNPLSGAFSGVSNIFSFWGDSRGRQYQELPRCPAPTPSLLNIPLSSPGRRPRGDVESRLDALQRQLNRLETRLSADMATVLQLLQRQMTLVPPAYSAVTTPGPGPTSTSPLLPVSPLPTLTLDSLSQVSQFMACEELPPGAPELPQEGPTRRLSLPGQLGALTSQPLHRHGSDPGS
Procedure, shortened: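 Cell line hERG-U2OS; dye FluxOR II, 1 h RT dark; Tl+ stimulus; ex 480/em 540 nm, read each second for 2 min.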
Tags describe the fitted curve by direction and shape.

## COC(C)COC(C)COC(C)CO (stereo not drawn)
[1]
  Potency: inactive
[2]
  Potency: inconclusive: 89.6 µM [inhibitor, single point] and inactive
[3]
  Potency: inconclusive: 79.6 µM [inhibitor, single point]
[4]
  Potency: inconclusive: 89.6 µM [inhibitor, partial curve, poor fit]
[5]
  Potency: inactive

## C/C=C/C(=O)O
[6]
  Potency: inconclusive: 27.3 µM [cytotoxic, single point]
[2]
  Potency: inconclusive: 67.8 µM [inhibitor, partial curve, poor fit]
[3]
  Potency: inconclusive: 8.54 µM [inhibitor, single point]
[5]
  Potency: inconclusive: 34 µM [inhibitor, partial curve]

## C=CC(C)(O)CC/C=C(/C)CCC=C(C)C (stereo not drawn)
[6]
  Potency: inactive
[2]
  Potency: inconclusive: 35.6 µM [inhibitor, partial curve]
[4]
  Potency: active: 31.7 µM

## CCCCCCc1ccc(N)cc1
[6]
  Potency: inconclusive: 61.1 µM [cytotoxic, partial curve, poor fit]
[7]
  Potency: active: 30.6 µM
[2]
  Potency: inconclusive: 63.3 µM [inhibitor]

## C=CCOCC(O)CS(=O)(=O)O (stereo not drawn)
[6]
  Potency: inconclusive: 0.277 µM [cytotoxic, single point]
[3]
  Potency: active: 80.8 µM

## COc1c(C)c2c(c(O)c1C/C=C(\C)CCC(=O)O)C(=O)OC2
[6]
  Potency: inconclusive: 1.5 µM [cytotoxic, full curve]

## CC(=O)CC(=O)Nc1ccccc1
[6]
  Potency: inactive
[7]
  Potency: inconclusive: 68.5 µM [activator, single point]
[3]
  Potency: inconclusive: 79.6 µM [inhibitor, single point]
[4]
  Potency: inconclusive: 70.9 µM [inhibitor, partial curve] and inconclusive: 63.3 µM [inhibitor, partial curve]
[8]
  Potency: inconclusive: 70.9 µM [inhibitor, partial curve]

## CC(=O)c1ccccn1
[6]
  Potency: inconclusive: 24.3 µM [cytotoxic, partial curve]
[3]
  Potency: active: 20.2 µM and inactive
[4]
  Potency: inconclusive: 40.4 µM [inhibitor]
[5]
  Potency: active: 64 µM and inactive

## COc1ccc(COC=O)cc1
[6]
  Potency: inactive
[4]
  Potency: inconclusive: 50.2 µM [inhibitor, partial curve, poor fit]

## CCC(C)(C)C(=O)O
[6]
  Potency: inactive
[5]
  Potency: inactive

## Clc1nc(Cl)c(Cl)c(Cl)c1Cl
[6]
  Potency: inactive
[3]
  Potency: inconclusive: 89.4 µM [inhibitor, single point]
[4]
  Potency: inconclusive: 71.4 µM [inhibitor, partial curve] and inactive
[5]
  Potency: inconclusive: 40.1 µM [inhibitor] and inactive

## OCC1CCCO1 (stereo not drawn)
[6]
  Potency: inconclusive: 27.3 µM [cytotoxic, single point]
[4]
  Potency: inconclusive: 72.3 µM [inhibitor, partial curve] and inconclusive: 44.8 µM [inhibitor, partial curve, poor fit]
[5]
  Potency: inconclusive: 64.4 µM [inhibitor, partial curve]

## C=CC(=O)OCCOC(=O)CCC(=O)O
[6]
  Potency: inconclusive: 68.6 µM [cytotoxic]
[4]
  Potency: inactive

## CCCCOCCOC(=O)CCCCCCCCC(=O)OCCOCCCC
[6]
  Potency: inactive
[4]
  Potency: active: 35.6 µM
[5]
  Potency: inconclusive: 39.9 µM [inhibitor, partial curve]

## O=C(c1ccccc1)c1ccccc1O
[6]
  Potency: inconclusive: 24.3 µM [cytotoxic, single point]
[7]
  Potency: inactive
[2]
  Potency: active: 40.9 µM and inconclusive: 31.7 µM [inhibitor, full curve]
[9]
  Potency: inconclusive: 56.3 µM [inhibitor, partial curve, poor fit]

## CCN(CC)C(=O)N1CCN(C)CC1
[6]
  Potency: inactive
[2]
  Potency: inactive

## Cc1cn([C@H]2C[C@H](F)[C@@H](CO)O2)c(=O)[nH]c1=O
[6]
  Potency: inactive
[2]
  Potency: inconclusive: 43.6 µM [inhibitor, single point]
[4]
  Potency: inactive
[5]
  Potency: inconclusive: 28.8 µM [inhibitor, partial curve]
[8]
  Potency: inactive

## CCCCCCCCCCCCCC
[6]
  Potency: inconclusive: 27.3 µM [cytotoxic, single point]
[2]
  Potency: inactive
[3]
  Potency: inactive
[5]
  Potency: inconclusive: 79.6 µM [inhibitor, partial curve, poor fit]
